Values marked as one replicate rest on one cluster of the flow cell; about a third of the high ones do not repeat.
What follows are sequences tested on ATP (assay: switch fluorescence ratio, 500 uM ATP over buffer (Cy3 cluster intensity, sum of 5 cycles each) (fold (ratio)); higher = stronger signal-on switching upon ATP binding; sequences stand for … in TCGTCGGCAGCGTCAGATGTGTATAAGAGACAGTTTTTTTTTTTTTTTTTTTTTTTTT…TC). Conditions: aptamer strand: ATP DNA aptamer (quencher-CACCTGGGGGAGTATTGCGGAGGAAGG + anchor), 100 nM annealed; ATP concentration: 500 uM; one replicate.
In short: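 Between each of five buffer/ATP cycles, the flow-cell was stripped with NaOH and re-annealed. Each cycle imaged Cy3-labelled switching-strand clusters, annealed to 100 nM quencher-labelled ATP aptamer on a modified Illumina MiSeq flow-cell, first in selection buffer and then after 15 min with 500 uM ATP at 22 °C. The fluorescence ratio is summed target-cycle over summed buffer-cycle Cy3 intensity per cluster, averaged per switch-domain sequence, with clusters outside 100-1000 RFU excluded.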
For TATTGGTATC, the switch fluorescence ratio was 1.01.
TATTGTCAAG showed a switch fluorescence ratio of 1.01.
Work on TATTGTCTCG yielded a switch fluorescence ratio of 1.01.
For TATTGTGAC, the switch fluorescence ratio was 1.01.
In the case of TATTGTGGCC, the switch fluorescence ratio is reported as 1.05.
In the case of TATTGTGTCA, the switch fluorescence ratio is reported as 0.962.
Work on TATTTACACG yielded a switch fluorescence ratio of 1.05.
With TATTTACAG the switch fluorescence ratio was 0.993.
TATTTAGAGA gave a switch fluorescence ratio of 0.973.
With TATTTCAGCG the switch fluorescence ratio was 1.
Sequence TATTTCCCAT has a switch fluorescence ratio of 1.
Sequence TATTTCCGTG has a switch fluorescence ratio of 0.974.
Sequence TATTTCCTCC has a switch fluorescence ratio of 1.29.
Work on TATTTTAAGC yielded a switch fluorescence ratio of 1.04.
In the case of TATTTTCGAG, the switch fluorescence ratio is reported as 0.959.
Sequence TATTTTTCTG has a switch fluorescence ratio of 1.
TCAAAACAAG showed a switch fluorescence ratio of 0.986.
In the case of TCAAAATATG, the switch fluorescence ratio is reported as 1.06.
TCAAACTTGT showed a switch fluorescence ratio of 0.96.
TCAAAGAAGG gave a switch fluorescence ratio of 1.01.
In the case of TCAAAGAGTT, the switch fluorescence ratio is reported as 1.02.
TCAAAGCTCA showed a switch fluorescence ratio of 1.01.
With TCAAAGGAAT the switch fluorescence ratio was 1.03.
TCAAAGTCTG showed a switch fluorescence ratio of 0.986.
TCAAAGTTCG showed a switch fluorescence ratio of 0.984.
TCAAATTGG gave a switch fluorescence ratio of 1.02.
Work on TCAACACAGC yielded a switch fluorescence ratio of 1.06.
TCAACAGCGC was tested, and the switch fluorescence ratio was 0.998.
Sequence TCAACATTCC has a switch fluorescence ratio of 2.46.
For TCAACGGATA, the switch fluorescence ratio was 1.07.
With TCAACTGCGA the switch fluorescence ratio was 1.53.
Work on TCAAGCGATA yielded a switch fluorescence ratio of 1.47.
TCAAGGTCCG gave a switch fluorescence ratio of 1.04.
TCAAGTTCCT gave a switch fluorescence ratio of 1.02.
In the case of TCAATACTAC, the switch fluorescence ratio is reported as 1.89.
Work on TCAATCAACT yielded a switch fluorescence ratio of 1.
In the case of TCAATCATGT, the switch fluorescence ratio is reported as 1.03.
In the case of TCAATCCGAT, the switch fluorescence ratio is reported as 0.989.
For TCAATCGTCA, the switch fluorescence ratio was 0.999.
TCAATGAATT gave a switch fluorescence ratio of 1.01.
In the case of TCAATGCCCT, the switch fluorescence ratio is reported as 1.03.
For TCAATGTAGG, the switch fluorescence ratio was 0.981.
In the case of TCAATGTTAT, the switch fluorescence ratio is reported as 1.01.
TCAATTAGAC was tested, and the switch fluorescence ratio was 1.02.
In the case of TCACACATCG, the switch fluorescence ratio is reported as 0.997.
TCACACCCAA gave a switch fluorescence ratio of 1.21.
TCACACTTAA showed a switch fluorescence ratio of 0.981.
For TCACAGAATG, the switch fluorescence ratio was 0.993.
TCACAGAGCT showed a switch fluorescence ratio of 1.03.
TCACAGTCCT showed a switch fluorescence ratio of 1.06.
TCACCATGCG was tested, and the switch fluorescence ratio was 0.969.
With TCACCGATTA the switch fluorescence ratio was 1.08.
For TCACCGCGCG, the switch fluorescence ratio was 1.04.
TCACCGCGGT gave a switch fluorescence ratio of 1.09.
Sequence TCACGAATTC has a switch fluorescence ratio of 1.01.
Sequence TCACGAGC has a switch fluorescence ratio of 1.05.
TCACGATGCT gave a switch fluorescence ratio of 1.02.
For TCACGGGAGA, the switch fluorescence ratio was 1.02.
TCACGGTACC was tested, and the switch fluorescence ratio was 1.52.
In the case of TCACGTGGGG, the switch fluorescence ratio is reported as 1.03.
Work on TCACTAAGTT yielded a switch fluorescence ratio of 1.05.
Sequence TCACTCTTGG has a switch fluorescence ratio of 0.985.
For TCACTGGCTG, the switch fluorescence ratio was 1.07.
Work on TCACTGGGCA yielded a switch fluorescence ratio of 1.02.
TCACTTGGAA showed a switch fluorescence ratio of 0.98.
TCACTTGTAT gave a switch fluorescence ratio of 1.02.
TCACTTTAAG showed a switch fluorescence ratio of 1.01.
For TCAGAAGTGC, the switch fluorescence ratio was 1.19.
TCAGACCAC showed a switch fluorescence ratio of 1.03.
TCAGACGGA gave a switch fluorescence ratio of 1.05.
For TCAGACTGG, the switch fluorescence ratio was 1.03.
For TCAGAGAAGT, the switch fluorescence ratio was 0.997.
TCAGAGGAGG was tested, and the switch fluorescence ratio was 1.06.
Work on TCAGATAACA yielded a switch fluorescence ratio of 1.02.
TCAGCAAAGC showed a switch fluorescence ratio of 1.28.
Sequence TCAGCAATTT has a switch fluorescence ratio of 2.46.
With TCAGCACGA the switch fluorescence ratio was 1.04.
TCAGCATTCG gave a switch fluorescence ratio of 1.07.
In the case of TCAGCCAAGG, the switch fluorescence ratio is reported as 1.06.
TCAGCCCACT showed a switch fluorescence ratio of 1.03.
TCAGCGAGG was tested, and the switch fluorescence ratio was 1.03.
With TCAGCGTGGT the switch fluorescence ratio was 1.01.
TCAGCGTGTT showed a switch fluorescence ratio of 0.997.
In the case of TCAGCTATTA, the switch fluorescence ratio is reported as 1.04.
TCAGCTTGAG showed a switch fluorescence ratio of 0.989.

From the supplement of paper PMC10126150
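Also: ATP exposure 15 min at 22 °C before imaging.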
